Assay results taken from article PMC2727002.
No constants are given. Whether binding was seen depends on the method and setting. In cells and extracts the contact can be indirect. Some entries that bind do so weakly or less than the wild type. Where a sequence is shown, tags or fusion partners need not be part of it.

Columns and labels:
Assay in all cases: co-IP; 2 mg of extract of cells expressing a Tap-tagged protein incubated overnight at 4°C with protein G magnetic beads with or without antibody against CBP; 40 mM Hepes pH 7.5, 1 mM EDTA, 20% glycerol, 150 mM potassium acetate, 100 mM potassium chloride; wild-type, caf40Δ or not4Δ cells as named; western blot
Tap-tagged Rrp4 (yeast) = target: T1, Tap-tagged Rrp4 (yeast) (UniProt P38792)
T1 sequence: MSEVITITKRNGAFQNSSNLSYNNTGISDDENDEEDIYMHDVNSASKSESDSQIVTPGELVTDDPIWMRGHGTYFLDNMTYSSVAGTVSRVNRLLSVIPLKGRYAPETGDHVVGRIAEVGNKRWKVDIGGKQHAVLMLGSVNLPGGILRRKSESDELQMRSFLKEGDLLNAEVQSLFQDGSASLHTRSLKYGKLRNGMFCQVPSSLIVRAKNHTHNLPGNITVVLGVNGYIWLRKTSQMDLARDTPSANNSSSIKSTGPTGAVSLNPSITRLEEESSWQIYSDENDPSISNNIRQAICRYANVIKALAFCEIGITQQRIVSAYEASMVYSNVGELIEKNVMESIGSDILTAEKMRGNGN

Tap-tagged Csl4 (yeast) = target: T2, Tap-tagged Csl4 (yeast) (UniProt P53859)
T2 sequence: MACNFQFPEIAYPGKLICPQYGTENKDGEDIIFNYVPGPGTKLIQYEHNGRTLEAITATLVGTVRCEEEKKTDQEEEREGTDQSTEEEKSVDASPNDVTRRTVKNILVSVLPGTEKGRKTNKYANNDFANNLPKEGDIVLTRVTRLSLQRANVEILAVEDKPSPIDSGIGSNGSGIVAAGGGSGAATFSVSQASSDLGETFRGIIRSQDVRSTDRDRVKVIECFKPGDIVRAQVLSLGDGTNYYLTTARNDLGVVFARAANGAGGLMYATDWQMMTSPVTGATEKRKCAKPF

Tap-tagged Rrp46 (yeast) = target: T3, Tap-tagged Rrp46 (yeast) (UniProt P53256)
T3 sequence: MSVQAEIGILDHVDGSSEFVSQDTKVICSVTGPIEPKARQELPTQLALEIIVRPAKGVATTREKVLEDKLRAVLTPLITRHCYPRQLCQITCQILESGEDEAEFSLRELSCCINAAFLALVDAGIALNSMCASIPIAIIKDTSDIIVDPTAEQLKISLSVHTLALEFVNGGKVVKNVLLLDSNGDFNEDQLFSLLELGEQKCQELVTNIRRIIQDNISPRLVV

Tap-tagged Mtr3 (yeast) = target: T4, Tap-tagged Mtr3 (yeast) (UniProt P48240)
T4 sequence: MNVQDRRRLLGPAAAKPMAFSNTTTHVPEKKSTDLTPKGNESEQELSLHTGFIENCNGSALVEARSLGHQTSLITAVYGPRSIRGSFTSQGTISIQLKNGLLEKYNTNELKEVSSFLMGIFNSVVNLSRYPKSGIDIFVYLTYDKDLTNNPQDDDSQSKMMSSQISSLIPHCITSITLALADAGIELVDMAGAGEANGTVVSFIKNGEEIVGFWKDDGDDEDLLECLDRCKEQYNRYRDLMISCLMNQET

Tap-tagged Rrp45 (yeast) = target: T5, Tap-tagged Rrp45 (yeast) (UniProt Q05636)
T5 sequence: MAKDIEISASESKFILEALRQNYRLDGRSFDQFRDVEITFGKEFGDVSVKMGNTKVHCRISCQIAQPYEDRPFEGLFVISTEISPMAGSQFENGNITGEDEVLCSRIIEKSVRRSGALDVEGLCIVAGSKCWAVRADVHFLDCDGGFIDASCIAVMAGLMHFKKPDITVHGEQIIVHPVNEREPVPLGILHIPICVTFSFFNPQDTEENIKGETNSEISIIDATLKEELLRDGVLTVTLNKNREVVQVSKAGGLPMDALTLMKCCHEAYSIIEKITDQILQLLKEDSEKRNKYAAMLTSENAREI

Tap-tagged Rrp43 (yeast) = target: T6, Tap-tagged Rrp43 (yeast) (UniProt P25359)
T6 sequence: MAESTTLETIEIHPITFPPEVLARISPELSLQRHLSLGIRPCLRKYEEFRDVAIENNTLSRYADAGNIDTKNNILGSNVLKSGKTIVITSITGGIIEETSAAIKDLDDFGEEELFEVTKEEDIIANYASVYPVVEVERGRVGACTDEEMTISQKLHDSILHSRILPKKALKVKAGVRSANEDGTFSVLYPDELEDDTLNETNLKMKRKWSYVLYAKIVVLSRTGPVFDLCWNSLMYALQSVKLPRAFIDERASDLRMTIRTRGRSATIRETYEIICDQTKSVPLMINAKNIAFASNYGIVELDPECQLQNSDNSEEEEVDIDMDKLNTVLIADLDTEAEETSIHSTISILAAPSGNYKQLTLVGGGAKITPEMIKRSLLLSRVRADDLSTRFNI

binding (Tap-tagged Rrp4 (yeast)): binds
binding (Tap-tagged Csl4 (yeast)): binds
binding (Tap-tagged Rrp46 (yeast)): binds
binding (Tap-tagged Mtr3 (yeast)): binds
binding (Tap-tagged Rrp45 (yeast)): binds
binding (Tap-tagged Rrp43 (yeast)): binds
B1: Not5 (protein, UniProt Q12514 1-560)
chain: MSQRKLQQDIDKLLKKVKEGIEDFDDIYEKFQSTDPSNSSHREKLESDLKREIKKLQKHRDQIKTWLSKEDVKDKQSVLMTNRRLIENGMERFKSVEKLMKTKQFSKEALTNPDIIKDPKELKKRDQVLFIHDCLDELQKQLEQYEAQENEEQTERHEFHIANLENILKKLQNNEMDPEPVEEFQDDIKYYVENNDDPDFIEYDTIYEDMGCEIQPSSSNNEAPKEGNNQTSLSSIRSSKKQERSPKKKAPQRDVSISDRATTPIAPGVESASQSISSTPTPVSTDTPLHTVKDDSIKFDNSTLGTPTTHVSMKKKESENDSEQQLNFPPDRTDEIRKTIQHDVETNAAFQNPLFNDELKYWLDSKRYLMQPLQEMSPKMVSQLESSLLNCPDSLDADSPCLYTKPLSLPHPTSIFFPNEPIRFVYPYDVPLNLTNNENDTDNKFGKDSKAKSKKDDDIYSRTSLARIFMKFDLDTLFFIFYHYQGSYEQFLAARELFKNRNWLFNKVDRCWYYKEIEKLPPGMGKSEEESWRYFDYKKSWLARRCGNDFVYNEEDFEKL
